Source: patent publication US8669255B2, “Substituted octahydropyrrolo[1,2-a]pyrazines as calcium channel blockers” (AbbVie Inc., priority 2011, dated 2014)

biological target: human Cav2.2 (Homo sapiens, UniProt Q00975); experiment: In vitro assessment of calcium channel activity using FLIPR (Ca2+ influx in IMR32 cells); type: cell-based; conditions: IMR32 cells endogenously expressing human Cav2.2; 60 minute pre-incubation; 2 μM nifedipine; depolarized with 80 mM KCl; average of at least two runs unless marked (*)

Structure (SMILES) | IC50 [µM]
O=C(c1cccc(C(F)(F)F)c1)N1CCN2C[C@@H](Oc3ccc(Cl)cn3)C[C@@H]2C1 [Example 66, [(7S,8aR)-7-[(5-chloropyridin-2-yl)oxy]hexahydropyrrolo[1,2-a]pyrazin-2(1H)-yl][3-(trifluoromethyl)phenyl]methanone] | 5.55
FC(F)(F)c1cccc(N2CCN3C[C@H](Oc4ccc(Cl)cn4)C[C@H]3C2)n1 [Example 85, (7R,8aS)-7-[(5-chloropyridin-2-yl)oxy]-2-[6-(trifluoromethyl)pyridin-2-yl]-octahydropyrrolo[1,2-a]pyrazine] | 4.72
Cc1ccc(C)n1-c1cccc(C(=O)N2CCN3C[C@H](Oc4cnc(C5CC5)cn4)C[C@H]3C2)c1 [Example 127, [(7R,8aS)-7-[(5-cyclopropylpyrazin-2-yl)oxy]hexahydropyrrolo[1,2-a]-pyrazin-2(1H)-yl][3-(2,5-dimethyl-1H-pyrrol-1-yl)phenyl]methanone] | 1.48
FC(F)(F)c1cccc(O[C@@H]2C[C@H]3CN(c4ccc(Cl)cn4)CCN3C2)n1 [Example 88, (7R,8aS)-2-(5-chloropyridin-2-yl)-7-{[6-(trifluoromethyl)pyridin-2-yl]-oxy}octahydropyrrolo[1,2-a]pyrazine] | 4.23
CC(C)c1cccc(OC(=O)N2CCN3C[C@H](Oc4cnc(C5CC5)cn4)C[C@H]3C2)c1 [Example 119, 3-isopropylphenyl (7R,8aS)-7-[(5-cyclopropylpyrazin-2-yl)oxy]hexahydro-pyrrolo[1,2-a]pyrazine-2(1H)-carboxylate] | 2.11
O=C(N[C@H]1C[C@H]2CN(C(=O)c3cccc(C(F)(F)F)c3)CCN2C1)c1ccc(F)c(Cl)c1 [Example 7, 3-chloro-4-fluoro-N-{(7S,8aS)-2-[3-(trifluoromethyl)benzoyl]-octahydropyrrolo[1,2-a]pyrazin-7-yl}benzamide] | 2.53
CCC(CC)C(=O)N1CCN2C[C@@H](Nc3ccc(C(F)(F)F)cn3)C[C@H]2C1 [Example 21, 2-ethyl-1-[(7S,8aS)-7-{[5-(trifluoromethyl)pyridin-2-yl]amino}-hexahydropyrrolo[1,2-a]pyrazin-2(1H)-yl]butan-1-one] | 8.98
CC(C)(C)CC(=O)N1CCN2C[C@@H](Nc3ccc(C(F)(F)F)cn3)C[C@H]2C1 [Example 24, 3,3-dimethyl-1-[(7S,8aS)-7-{[5-(trifluoromethyl)pyridin-2-yl]amino}-hexahydropyrrolo[1,2-a]pyrazin-2(1H)-yl]butan-1-one] | 15.7
O=C(Oc1ccc(C(F)(F)F)cc1)N1CCN2C[C@H](Oc3cnc(C4CC4)cn3)C[C@H]2C1 [Example 115, 4-(trifluoromethyl)phenyl (7R,8aS)-7-[(5-cyclopropylpyrazin-2-yl)oxy]-hexahydropyrrolo[1,2-a]pyrazine-2(1H)-carboxylate] | 2.26
O=S(=O)(N[C@H]1C[C@H]2CNCCN2C1)c1cccc(C(F)(F)F)c1 [Example 42, N-[(7S,8aS)-octahydropyrrolo[1,2-a]pyrazin-7-yl]-3-(trifluoromethyl)-benzenesulfonamide] | 16.4
CC(C)N1CCN2C[C@@H](NS(=O)(=O)c3cccc(C(F)(F)F)c3)C[C@H]2C1 [Example 45, N-[(7S,8aS)-2-isopropyloctahydropyrrolo[1,2-a]pyrazin-7-yl]-3-(trifluoromethyl)benzenesulfonamide] | 6.71
O=C(Oc1ccc(F)c(C(F)(F)F)c1)N1CCN2C[C@H](Oc3cnc(C4CC4)cn3)C[C@H]2C1 [Example 116, 4-fluoro-3-(trifluoromethyl)phenyl (7R,8aS)-7-[(5-cyclopropylpyrazin-2-yl)-oxy]hexahydropyrrolo[1,2-a]pyrazine-2(1H)-carboxylate] | 0.92
O=C(Cc1ccc(C(F)(F)F)cc1)N1CCN2C[C@H](Oc3cnc(C4CC4)cn3)C[C@H]2C1 [Example 144, 1-[(7R,8aS)-7-[(5-cyclopropylpyrazin-2-yl)oxy]hexahydropyrrolo[1,2-a]-pyrazin-2(1H)-yl]-2-[4-(trifluoromethyl)phenyl]ethanone] | 0.72
N#Cc1ccc(CC(=O)N2CCN3C[C@H](Oc4cnc(C5CC5)cn4)C[C@H]3C2)cc1C(F)(F)F [Example 148, 4-{2-[(7R,8aS)-7-[(5-cyclopropylpyrazin-2-yl)oxy]hexahydropyrrolo[1,2-a]pyrazin-2(1H)-yl]-2-oxoethyl}-2-(trifluoromethyl)benzonitrile] | 0.49
CCC(CC)C(=O)N1CCN2C[C@@H](Nc3cccc(C(F)(F)F)n3)C[C@H]2C1 [Example 27, 2-ethyl-1-[(7S,8aS)-7-{[6-(trifluoromethyl)pyridin-2-yl]amino}hexahydro-pyrrolo[1,2-a]pyrazin-2(1H)-yl]butan-1-one] | 9.66
O=C(COc1cccc(C(F)(F)F)c1)N1CCN2C[C@H](Oc3cnc(C4CC4)cn3)C[C@H]2C1 [Example 155, 1-[(7R,8aS)-7-[(5-cyclopropylpyrazin-2-yl)oxy]hexahydropyrrolo[1,2-a]-pyrazin-2(1H)-yl]-2-[3-(trifluoromethyl)phenoxy]ethanone] | 0.37
FC(F)(F)c1ccc(N2CCN3CC[C@@H](Oc4ccc(Cl)cn4)[C@H]3C2)nc1 (relative stereo) [Example 103, (8R*,8aR*)-8-[(5-chloropyridin-2-yl)oxy]-2-[5-(trifluoromethyl)pyridin-2-yl]octahydropyrrolo[1,2-a]pyrazine] | 2.3

The remaining lines, values ahead:

IC50 [µM] | Structure (SMILES)
0.58 | CNC(C(=O)N1CCN2C[C@H](Oc3cnc(C4CC4)cn3)C[C@H]2C1)c1cccc(C(F)(F)F)c1 (stereo partly drawn) [Example 179, 1-[(7R,8aS)-7-[(5-cyclopropylpyrazin-2-yl)oxy]hexahydropyrrolo[1,2-a]-pyrazin-2(1H)-yl]-2-(methylamino)-2-[3-(trifluoromethyl)phenyl]ethanone]
0.96 | O=C(c1cccc(C(F)(F)F)c1)N1CC(=O)N2C[C@H](Oc3cnc(C4CC4)cn3)C[C@H]2C1 [Example 178, (7R,8aS)-7-[(5-cyclopropylpyrazin-2-yl)oxy]-2-[3-(trifluoromethyl)-benzoyl]hexahydropyrrolo[1,2-a]pyrazin-4(1H)-one]
6.48 | O=C(c1ccc(C(F)(F)F)cn1)N1CCN2C[C@H](Oc3cnc(C4CC4)cn3)C[C@H]2C1 [Example 109, [(7R,8aS)-7-[(5-cyclopropylpyrazin-2-yl)oxy]hexahydropyrrolo[1,2-a]-pyrazin-2(1H)-yl][5-(trifluoromethyl)pyridin-2-yl]methanone]
0.37 | CN[C@@H](C(=O)N1CCN2C[C@H](Oc3cnc(C4CC4)cn3)C[C@H]2C1)c1cccc(C(F)(F)F)c1 [Example 187, (2R)-1-[(7R,8aS)-7-[(5-cyclopropylpyrazin-2-yl)oxy]hexahydropyrrolo[1,2-a]pyrazin-2(1H)-yl]-2-(methylamino)-2-[3-(trifluoromethyl)phenyl]ethanone]
0.86 | COC(=O)N[C@H](C(=O)N1CCN2C[C@H](Oc3cnc(C4CC4)cn3)C[C@H]2C1)c1ccc(C(F)(F)F)cc1 [Example 191, methyl {(1S)-2-[(7R,8aS)-7-[(5-cyclopropylpyrazin-2-yl)oxy]hexahydro-pyrrolo[1,2-a]pyrazin-2(1H)-yl]-2-oxo-1-[4-(trifluoromethyl)phenyl]ethyl}carbamate]
2.66 | O=C(c1cc(C(F)(F)F)ccc1F)N1CCN2C[C@H](Oc3cnc(C4CC4)cn3)C[C@H]2C1 [Example 79, [(7R,8aS)-7-[(5-cyclopropylpyrazin-2-yl)oxy]hexahydropyrrolo[1,2-a]-pyrazin-2(1H)-yl][2-fluoro-5-(trifluoromethyl)phenyl]methanone]
6.99 | O=C(c1c(F)cccc1C(F)(F)F)N1CCN2C[C@H](Oc3cnc(C4CC4)cn3)C[C@H]2C1 [Example 76, [(7R,8aS)-7-[(5-cyclopropylpyrazin-2-yl)oxy]hexahydropyrrolo[1,2-a]-pyrazin-2(1H)-yl][2-fluoro-6-(trifluoromethyl)phenyl]methanone]
2.04 | CO[C@@H](C(=O)N1CCN2C[C@H](Oc3cnc(C4CC4)cn3)C[C@H]2C1)c1cccc(C(F)(F)F)c1 [Example 169, (2R)-1-[(7R,8aS)-7-[(5-cyclopropylpyrazin-2-yl)oxy]hexahydropyrrolo[1,2-a]pyrazin-2(1H)-yl]-2-methoxy-2-[3-(trifluoromethyl)phenyl]ethanone]
1.91 | O=C(c1cc(C(F)(F)F)ccc1Cl)N1CCN2C[C@H](Oc3cnc(C4CC4)cn3)C[C@H]2C1 [Example 72, [2-chloro-5-(trifluoromethyl)phenyl][(7R,8aS)-7-[(5-cyclopropylpyrazin-2-yl)oxy]hexahydropyrrolo[1,2-a]pyrazin-2(1H)-yl]methanone]
7.56 | O=C1[C@@H]2C[C@@H](Oc3cnc(C4CC4)cn3)CN2CCN1c1cccc(C(F)(F)F)n1 (single isomer, unassigned) [Example 170]
> 30 | O=C1[C@@H]2C[C@@H](Oc3cnc(C4CC4)cn3)CN2CCN1c1ccc(C(F)(F)F)cn1 (single isomer, unassigned) [Example 171]
4.88 | O=C1[C@@H]2C[C@@H](Oc3cnc(C4CC4)cn3)CN2CCN1Cc1cccc(C(F)(F)F)c1 [Example 163, (7R,8aS)-7-[(5-cyclopropylpyrazin-2-yl)oxy]-2-[3-(trifluoromethyl)benzyl]-hexahydropyrrolo[1,2-a]pyrazin-1(2H)-one]
3.51 | O=C([C@H](O)c1cccc(C(F)(F)F)c1)N1CCN2C[C@H](Oc3cnc(C4CC4)cn3)C[C@H]2C1 [Example 159, (2R)-1-[(7R,8aS)-7-[(5-cyclopropylpyrazin-2-yl)oxy]hexahydropyrrolo[1,2-a]pyrazin-2(1H)-yl]-2-hydroxy-2-[3-(trifluoromethyl)phenyl]ethanone]
15.6 | O=C(c1cc(C(F)(F)F)ccn1)N1CCN2C[C@H](Oc3cnc(C4CC4)cn3)C[C@H]2C1 [Example 106, [(7R,8aS)-7-[(5-cyclopropylpyrazin-2-yl)oxy]hexahydropyrrolo[1,2-a]-pyrazin-2(1H)-yl][4-(trifluoromethyl)pyridin-2-yl]methanone]
0.46 | CNC(C(=O)N1CCN2C[C@H](Oc3cnc(C4CC4)cn3)C[C@H]2C1)c1ccc(C(F)(F)F)cc1 (stereo partly drawn) [Example 188, 1-[(7R,8aS)-7-[(5-cyclopropylpyrazin-2-yl)oxy]hexahydropyrrolo[1,2-a]-pyrazin-2(1H)-yl]-2-(methylamino)-2-[4-(trifluoromethyl)phenyl]ethanone]
